Laboratory results: PubChem BioAssay (NCATS)
Inconclusive results, whose numbers are uncertain, are shown with a selection of clear calls. No potency is given beside an inconclusive call; the fits are too rough. Active and inactive are the calls of the source. The call rests on the fitted dose curve; in most records, active means well fitted inhibition curve with a large enough effect; inconclusive means small, poorly fitted or top-dose-only effect; inactive means no such curve, though single readings can be large or run the other way.
Potency means the concentration at half of the fitted maximal effect; tags describe the fitted curve by direction and shape.

Assay: Primary fluorescence-based thiol-reactive (MSTI) qHTS assay for identification of artifact compounds. (AID 1845221);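 further: thiol-reactive compounds lower the probe fluorescence signal; nearly all actives have a fitted effect of over 65% in size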
Conditions: MSTI thiol-reactivity probe, 1 h; series mostly up to 53.8 µM; activity change, negative = thiol reactive: at the top concentration
From the text: PI: Alexander Tropsha Ph.D.
UNC Eshelman School of Pharmacy
University of North Carolina, Chapel Hill, North Carolina
Hits from high-throughput screening (HTS) of chemical libraries are often false positives due to their interference with the assay detection technology. In response to this problem, we generated the largest publicly available library of chemical liabilities and developed a free webtool to predict HTS artifacts, both of which are described herein. More specifically, we generated, curated, and integrated HTS datasets for thiol reactivity, redox activity, and luciferase (firefly and nano) activity. Using these curated datasets, we developed and validated several Quantitative Structure-Interference Relationship (QSIR) models to predict nuisance behavior. […] These models were employed for virtual profiling of the National Center for Advancing Translational Science's (NCATS) in-house library, and 256 compounds for each assay were selected for the experimental validation of nuisance behavior. The BA for these external predictions ranged from 58 to 78% for compounds within the applicability domains of the models. […] The models developed in this study, along with aggregation models previously developed by our group (SCAM Detective) were implemented in "Liability Predictor," an online tool which may be used as part of chemical library design or for triaging HTS hits. Both the models and the curated datasets are publicly available at https://liability.mml.unc.edu/.
SEQUENCE No. (e.g., 1, 2, 3, etc.); […] (e.g., Cells, Incubation, Reagent, etc.); VALUE; DESCRIPTION.
1; Reagent; 4 uL; […].
2; Compounds and control; 16 nL; Kalypsis pin tool (Wako USA) equipped with a 1536-well pin head.
4; Detection; Fluorescence, ViewLux microplate reader, 525 nm excitation, 598 nm emission.
NOTES (numbers refer to Sequence numbers above)
1. Assays determining (E)-2-(4-mercaptostyryl)-1,3,3-trimethyl-3H-indol-1-ium (MSTI) reactivity were performed as previously described in the literature with modifications for the quick identification of compounds reacting with thiol. In brief, 4 uL of MSTI or positive control Acetyl-MSTI (final concentrations of 4 uM and 4 uM, respectively) in assay buffer (2% DMSO in 1X PBS pH 7.4) was dispensed into all wells of a 1536-well assay plate (solid-bottom black plate; Greiner Bio One, Monroe, NC).
2. A Wako Pin-tool (Wako Automation, Richmond, VA) was used to transfer 16 nL of compounds (consisting of 7-plates in qHTS format, final concentration range 18.3 nM to 114 uM) or control MLS001163887 (final concentration range 1.22 nM to 40 uM).
3. Plates were centrifuged (121xg, 15 seconds) and incubated for 1 hour at room temperature protected from light.
4. Samples were read for fluorescence (Ex/Em = 525(20)/598(25) nm) on a ViewLux CCD imager (PerkinElmer). Data were normalized to Acetyl-MSTI (0% activity) and MSTI (100% activity) and the resulting percent inhibition data were fitted to a 4-parameter Hill equation using NCATS in-house software.
In the case of CC(C)c1ccc(CO)cc1O[C@@H]1O[C@H](CO)[C@@H](O)[C@H](O)[C@H]1O, the Potency is reported as active: 13.1 µM.
For C=CC1(C)C=C2C(=O)OC(=O)C3=C(CCCC3(C)C)C2(O)CC1 (stereo not given), the Potency was inconclusive [inhibitor, partial curve, poor fit].
For CCCc1cc(C)[nH]c(=O)c1CNC(=O)c1cc(-c2ccc(N3CCN(C(C)C)CC3)nc2)cc2c1cnn2C(C)C, the Potency was inconclusive [inhibitor, single point].
For CC(C)=C/C=C\[C@H](C)[C@H]1CC[C@]2(C)C[C@@H]3C(C)=CC(=O)C3/C(CO)=C\C[C@@H]12 (stereo not given in full), the “activity change, negative = thiol reactive” value (“activity change” for short) was inactive: -17.7%.
For C/C(=C\CCC(C(=O)O)C1CCC2(C)C3=C(CCC12C)C1(C)CCC(=O)C(C)(C)C1CC3)C(=O)O (stereo not given), the “activity change” value was inactive: 47.5% [at 25.6 µM].
With Nc1nc(Nc2ccc(S(N)(=O)=O)cc2)n(C(=S)Nc2c(F)cccc2F)n1 the Potency was inconclusive [inhibitor, partial curve].
For CC1=C2C(=O)O[C@@H](c3ccoc3)[C@]2(C)CCC1, the Potency was “inactive”.
In the case of O=C(NO)c1cnc(N2CCN(S(=O)(=O)c3ccc4ccccc4c3)CC2)nc1, the Potency is reported as inconclusive [inhibitor, full curve].
With COc1cccc(NC[C@@H](O)Cn2c3ccc(Br)cc3c3cc(Br)ccc32)c1 the Potency was inconclusive [inhibitor, partial curve].
With OC1COC(OCC2OC(OCCc3ccccc3)C(O)C(O)C2O)C(O)C1O (stereo not given) the Potency was active: 4.12 µM.
For CC(C)Oc1ccc(-c2cnc3c(-c4ccnc5ccccc45)cnn3c2)cc1, the “activity change” value was inactive: -2.65%.
With CC1=C(C(=O)O[C@@H]2O[C@H](COC3OCC(O)C(O)C3O)[C@@H](O)[C@H](O)[C@H]2O)C(C)(C)CCC1 (stereo not given in full) the Potency was inconclusive [inhibitor, partial curve].
For CC(=O)/C=C/C1(O)C(C)(C)CC(O)CC1(C)O (stereo not given), the Potency was inconclusive [inhibitor, partial curve, poor fit].
In the case of O=C(C[C@@H]1C(C(=O)O)=CO[C@@H](O[C@@H]2O[C@H](CO)[C@@H](O)[C@H](O)[C@H]2O)/C1=C\CO)OCCc1ccc(O)c(O)c1, the Potency is reported as inconclusive [inhibitor, partial curve].
In the case of O=C(NCCCn1ccnc1)c1cc(-c2ccco2)on1, the “activity change” value is reported as inactive: -19.4%.
In the case of CCC(O)C(C)C1CCC(C(C)C(=O)O)O1 (stereo not given), the Potency is reported as active: 10.6 µM.
For COc1cc(O)cc(/C=C/c2ccc(O[C@@H]3O[C@H](CO)[C@@H](O)[C@H](O)[C@H]3O)cc2)c1, the Potency was inconclusive [inhibitor, partial curve].
In the case of COC1C2=C(COC2=O)C2(C)CCCC(C)(CO)C2C1OC(=O)c1ccccc1 (stereo not given), the Potency is reported as inconclusive [inhibitor, partial curve].
With O=C(O)/C=C/c1ccc2occc2c1O[C@@H]1O[C@H](CO)[C@@H](O)[C@H](O)[C@H]1O the Potency was inconclusive [inhibitor, partial curve, poor fit].
With COc1cc(C)c(C(=O)O[C@H]2[C@@H](O)[C@H](n3ccc(=O)[nH]c3=O)O[C@@H]2CO)c(OC)c1 the “activity change” value was inactive: 3.47% [at 25.6 µM].
For CCCCc1nc2cc(/C=C/C(=O)NO)ccc2n1CCN(CC)CC, the Potency was inconclusive [inhibitor, full curve].
With CC[C@H]1OC(=O)[C@H](C)[C@@H](O[C@H]2C[C@@](C)(OC)[C@@H](O)[C@H](C)O2)[C@H](C)[C@@H](O[C@@H]2O[C@H](C)C[C@H](N(C)C)[C@H]2O)[C@](C)(O)C[C@@H](C)C(=O)[C@H](C)[C@H]2OC(=O)O[C@@]21C the Potency was inconclusive [inhibitor, full curve, poor fit].
With O=C(O[C@H]1[C@@H]2C=CO[C@@H](O[C@@H]3O[C@H](CO)[C@@H](O)[C@H](O)[C@H]3O)[C@@H]2[C@@]2(CO)O[C@@H]12)c1ccc(O)cc1 the Potency was inconclusive [inhibitor, partial curve].
With C[C@H](Oc1cc(-c2cnn(C3CCNCC3)c2)cnc1N)c1c(Cl)ccc(F)c1Cl the “activity change” value was inactive: -18.8%.
For COc1cc(CCO)ccc1O[C@@H]1O[C@H](CO)[C@@H](O)[C@H](O)[C@H]1O, the Potency was inconclusive [inhibitor, partial curve].
With Cn1c(=O)cc(N2CCCC(N)C2)n(Cc2ccccc2C#N)c1=O (stereo not given) the Potency was inconclusive [inhibitor, partial curve, poor fit].
For Clc1ccc2c(c1)C1=NCCN1c1c(-c3noc(C4CC4)n3)ncn1-2, the “activity change” value was inactive: -25.2%.
In the case of O=C1COC2(CCN(S(=O)(=O)c3ccc(-c4ccc5cccnc5c4)cc3)CC2)CN1C1CC1, the “activity change” value is reported as inactive: 95.3%.
With Cc1ccc(NC(=O)C(=O)NC2CC(C)(C)NC(C)(C)C2)cc1 the “activity change” value was inactive: -6.88%.
With COC(=O)c1[nH]c(=O)c2ccccc2c1-c1ccc[nH]1 the Potency was inconclusive [inhibitor, partial curve].
With Cc1[nH]c2ccccc2c1CCNC(=O)c1cccs1 the Potency was active: 8.44 µM.
In the case of COc1cc(/C=C/CO)cc(OC)c1O[C@@H]1O[C@H](CO[C@@H]2O[C@H](CO)[C@@H](O)[C@H](O)[C@H]2O)[C@@H](O)[C@H](O)[C@H]1O, the Potency is reported as inconclusive [inhibitor, partial curve, poor fit].
With COc1cc(/C=C/C(=O)O[C@@H]2O[C@H](CO)[C@@H](O)[C@H](O)[C@H]2O)ccc1O the Potency was active: 4.65 µM.
For CCOc1nc2cccc(C(=O)OCc3oc(=O)oc3C)c2n1Cc1ccc(-c2ccccc2-c2noc(O)n2)cc1, the “activity change” value was inactive: 236%.
For C[C@@H]1CC[C@]2(C(=O)O)CC[C@]3(C)C(=CCC4[C@@]5(C)C[C@@H](O)[C@H](O)[C@@](C)(CO)C5CC[C@]43C)C2[C@]1(C)O (stereo not given in full), the Potency was inconclusive [inhibitor, full curve, poor fit].
In the case of CC(C)C(CO)Nc1nc(Nc2cc(N)cc(Cl)c2)c2ncn(C(C)C)c2n1 (stereo not given), the Potency is reported as inconclusive [inhibitor, full curve].
For CC(C)C(NC(=O)c1ccc(O)cc1)C(=O)N1CCCC1C(=O)Nc1c(O)cccc1C(=O)O (stereo not given), the Potency was inconclusive [inhibitor, partial curve].
With CC(C)(C)OC(=O)c1ncn2c1C(C)(C)Nc1ccccc1-2 the Potency was inconclusive [inhibitor, partial curve, poor fit].
With Cc1cc2c(F)c(Oc3ncnn4cc(OCC(C)OC(=O)C(C)N)c(C)c34)ccc2[nH]1 (stereo not given) the “activity change” value was inactive: 42%.
With O=C(N/N=C/c1ccc(O)c(O)c1)c1cc2ccccc2cc1O the Potency was active: 0.707 µM.
